According to the supplement of paper PMC7826260:
The other results are listed elsewhere or left out. The data describe in vitro nicking of single-stranded DNA by Rep domains at 3 µM enzyme and 37 °C for 1 h; the strands have 90 letters, of which the middle is given. Numbers give uncut DNA relative to the enzyme-free pool, as log2; more negative means more cut, near 0 not cut, and no call is made. Shares of all reads are compared; uncut strands gain when others are lost, and binding without cutting may add a little.

Columns and labels:
Experiment in all cases: uncleaved DNA left, log2 of reads against the no-enzyme library (log2 ratio); higher = less cleavage (more negative = more Rep cleavage of the k-mer); sequences stand for … in CTCGTCCG…ACCGGAGA
[1] = tested on: T1, Rep nickase domain of Muscovy duck circovirus
T1 sequence (Rep 1-111, printed without the tag): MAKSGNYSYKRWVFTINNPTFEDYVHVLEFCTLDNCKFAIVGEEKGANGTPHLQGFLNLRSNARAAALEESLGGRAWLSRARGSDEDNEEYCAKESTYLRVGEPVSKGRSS
Procedure: (§1)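 A pool of 90-nt single-stranded DNAs with seven random bases just before the constant AC of the nick site (name = the seven bases) was cut by 3 µM recombinant His6-SUMO-tagged Rep nickase domain (300 nM DNA, 50 mM HEPES pH 8.0, 50 mM NaCl, 1 mM MnCl2, 1 h, 37 °C, three replicates). Uncut DNA was amplified and sequenced.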

[2] = tested on: T2, Rep nickase domain of banana bunchy top virus
T2 sequence (Rep 1-94, printed without the tag): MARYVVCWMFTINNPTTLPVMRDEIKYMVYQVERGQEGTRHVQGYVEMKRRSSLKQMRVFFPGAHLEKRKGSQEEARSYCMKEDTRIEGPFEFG
Procedure: as §1

[3] = tested on: T3, Rep nickase domain of cabbage leaf curl virus
T3 sequence (Rep 1-116, printed without the tag): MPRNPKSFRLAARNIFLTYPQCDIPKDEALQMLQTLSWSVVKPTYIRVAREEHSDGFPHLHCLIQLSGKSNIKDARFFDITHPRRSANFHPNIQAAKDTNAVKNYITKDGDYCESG
Procedure: as §1

[4] = tested on: T4, Rep nickase domain of chickpea chlorotic dwarf virus
T4 sequence (Rep 1-124, printed without the tag): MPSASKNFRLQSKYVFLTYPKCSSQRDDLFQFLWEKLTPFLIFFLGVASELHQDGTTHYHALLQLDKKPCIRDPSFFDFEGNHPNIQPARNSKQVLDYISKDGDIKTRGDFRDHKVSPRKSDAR
Procedure: as §1

[5] = tested on: T5, Rep nickase domain of faba bean necrotic yellows virus
T5 sequence (Rep 1-98, printed without the tag): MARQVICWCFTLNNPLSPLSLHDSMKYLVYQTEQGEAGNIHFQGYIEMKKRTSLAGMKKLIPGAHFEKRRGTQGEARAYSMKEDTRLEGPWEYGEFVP
Procedure: as §1

[6] = tested on: T6, Rep nickase domain of maize striate mosaic virus
T6 sequence (Rep 1-117, printed without the tag): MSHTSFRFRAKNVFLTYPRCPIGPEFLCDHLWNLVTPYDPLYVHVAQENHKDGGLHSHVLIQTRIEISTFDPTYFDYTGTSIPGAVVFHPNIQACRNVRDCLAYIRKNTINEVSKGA
Procedure: as §1

[7] = tested on: T7, Rep nickase domain of porcine circovirus 2
T7 sequence (Rep 2-116, printed without the tag): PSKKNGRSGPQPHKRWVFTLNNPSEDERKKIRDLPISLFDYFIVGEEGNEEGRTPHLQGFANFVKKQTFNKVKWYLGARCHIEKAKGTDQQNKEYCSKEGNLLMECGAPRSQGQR
Procedure: as §1

[8] = tested on: T8, Rep nickase domain of tomato golden mosaic virus
T8 sequence (Rep 1-124, printed without the tag): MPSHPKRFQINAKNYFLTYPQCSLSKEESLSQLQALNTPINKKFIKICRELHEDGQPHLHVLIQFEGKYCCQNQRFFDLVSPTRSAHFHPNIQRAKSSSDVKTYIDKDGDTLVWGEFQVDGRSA
Procedure: as §1

[9] = tested on: T9, Rep nickase domain of tomato yellow leaf curl virus
T9 sequence (Rep 1-136, printed without the tag): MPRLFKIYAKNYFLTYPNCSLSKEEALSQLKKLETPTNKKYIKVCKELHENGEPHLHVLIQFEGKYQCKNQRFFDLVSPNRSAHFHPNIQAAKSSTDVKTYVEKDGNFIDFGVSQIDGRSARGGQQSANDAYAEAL
Procedure: as §1

[10] = tested on: T10, Rep nickase domain of wheat dwarf virus
T10 sequence (Rep 1-137, printed without the tag): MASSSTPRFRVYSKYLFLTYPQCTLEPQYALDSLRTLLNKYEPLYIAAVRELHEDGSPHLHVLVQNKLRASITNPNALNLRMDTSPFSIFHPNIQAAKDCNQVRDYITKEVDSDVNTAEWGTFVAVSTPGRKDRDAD
Procedure: as §1

## GCATATC
[1]
  uncleaved DNA left (log2): 0.121
[2]
  uncleaved DNA left (log2): 0.0964
[3]
  uncleaved DNA left (log2): 0.192
[4]
  uncleaved DNA left (log2): 0.536
[5]
  uncleaved DNA left (log2): 0.0569
[6]
  uncleaved DNA left (log2): -0.146
[7]
  uncleaved DNA left (log2): 0.116
[8]
  uncleaved DNA left (log2): 0.0365
[9]
  uncleaved DNA left (log2): 0.18
[10]
  uncleaved DNA left (log2): 0.271

## CGTCCGT
[1]
  uncleaved DNA left (log2): 0.0262
[2]
  uncleaved DNA left (log2): 0.0695
[3]
  uncleaved DNA left (log2): -0.0175
[4]
  uncleaved DNA left (log2): 0.117
[5]
  uncleaved DNA left (log2): -0.0279
[6]
  uncleaved DNA left (log2): 0.312
[7]
  uncleaved DNA left (log2): -0.000252
[8]
  uncleaved DNA left (log2): -0.053
[9]
  uncleaved DNA left (log2): 0.0916
[10]
  uncleaved DNA left (log2): -0.0141

## AAGGGCA
[1]
  uncleaved DNA left (log2): 0.0771
[2]
  uncleaved DNA left (log2): 0.0178
[3]
  uncleaved DNA left (log2): 0.173
[4]
  uncleaved DNA left (log2): 0.437
[5]
  uncleaved DNA left (log2): 0.0974
[6]
  uncleaved DNA left (log2): 0.27
[7]
  uncleaved DNA left (log2): -0.0182
[8]
  uncleaved DNA left (log2): 0.069
[9]
  uncleaved DNA left (log2): -0.0151
[10]
  uncleaved DNA left (log2): 0.0919

## CTGATCA
[1]
  uncleaved DNA left (log2): 0.0428
[2]
  uncleaved DNA left (log2): 0.0734
[3]
  uncleaved DNA left (log2): 0.217
[4]
  uncleaved DNA left (log2): -0.0636
[5]
  uncleaved DNA left (log2): 0.0185
[6]
  uncleaved DNA left (log2): 0.281
[7]
  uncleaved DNA left (log2): 0.0484
[8]
  uncleaved DNA left (log2): 0.00653
[9]
  uncleaved DNA left (log2): 0.0342
[10]
  uncleaved DNA left (log2): 0.0714

## TCCAAAT
[1]
  uncleaved DNA left (log2): 0.00432
[2]
  uncleaved DNA left (log2): 0.0738
[3]
  uncleaved DNA left (log2): -0.00071
[4]
  uncleaved DNA left (log2): -0.376
[5]
  uncleaved DNA left (log2): -0.147
[6]
  uncleaved DNA left (log2): -0.252
[7]
  uncleaved DNA left (log2): -0.197
[8]
  uncleaved DNA left (log2): -0.00433
[9]
  uncleaved DNA left (log2): 0.0631
[10]
  uncleaved DNA left (log2): 0.00608

## ATGCGAG
[1]
  uncleaved DNA left (log2): -0.107
[2]
  uncleaved DNA left (log2): 0.00531
[3]
  uncleaved DNA left (log2): -0.377
[4]
  uncleaved DNA left (log2): -0.184
[5]
  uncleaved DNA left (log2): -0.0152
[6]
  uncleaved DNA left (log2): -0.879
[7]
  uncleaved DNA left (log2): 0.0461
[8]
  uncleaved DNA left (log2): 0.026
[9]
  uncleaved DNA left (log2): -0.129
[10]
  uncleaved DNA left (log2): -0.148

## TTTTTTG
[1]
  uncleaved DNA left (log2): 0.0354
[2]
  uncleaved DNA left (log2): -0.0454
[3]
  uncleaved DNA left (log2): -0.528
[4]
  uncleaved DNA left (log2): -0.631
[5]
  uncleaved DNA left (log2): 0.0676
[6]
  uncleaved DNA left (log2): -1.09
[7]
  uncleaved DNA left (log2): 0.0611
[8]
  uncleaved DNA left (log2): -0.0723
[9]
  uncleaved DNA left (log2): -0.0298
[10]
  uncleaved DNA left (log2): -0.0756

## AAGAATT
[1]
  uncleaved DNA left (log2): 0.107
[2]
  uncleaved DNA left (log2): -1.41
[3]
  uncleaved DNA left (log2): -0.137
[4]
  uncleaved DNA left (log2): -1.41
[5]
  uncleaved DNA left (log2): -0.355
[6]
  uncleaved DNA left (log2): 1.02
[7]
  uncleaved DNA left (log2): -3.64
[8]
  uncleaved DNA left (log2): -0.0256
[9]
  uncleaved DNA left (log2): 0.0397
[10]
  uncleaved DNA left (log2): 0.11

## TAATATT
[1]
  uncleaved DNA left (log2): -4.3
[2]
  uncleaved DNA left (log2): -4.34
[3]
  uncleaved DNA left (log2): -5.48
[4]
  uncleaved DNA left (log2): -2.62
[5]
  uncleaved DNA left (log2): -3.88
[6]
  uncleaved DNA left (log2): -4.85
[7]
  uncleaved DNA left (log2): -4.76
[8]
  uncleaved DNA left (log2): -4.87
[9]
  uncleaved DNA left (log2): -4.04
[10]
  uncleaved DNA left (log2): -5.51

## CGCTCTA
[1]
  uncleaved DNA left (log2): -0.0786
[2]
  uncleaved DNA left (log2): -0.0425
[3]
  uncleaved DNA left (log2): -0.0832
[4]
  uncleaved DNA left (log2): -0.83
[5]
  uncleaved DNA left (log2): -0.0313
[6]
  uncleaved DNA left (log2): -0.403
[7]
  uncleaved DNA left (log2): -0.173
[8]
  uncleaved DNA left (log2): -0.00759
[9]
  uncleaved DNA left (log2): -0.0346
[10]
  uncleaved DNA left (log2): 0.0289

## GCCATGG
[1]
  uncleaved DNA left (log2): -0.104
[2]
  uncleaved DNA left (log2): -0.112
[3]
  uncleaved DNA left (log2): -0.359
[4]
  uncleaved DNA left (log2): -0.00926
[5]
  uncleaved DNA left (log2): -0.0804
[6]
  uncleaved DNA left (log2): -0.828
[7]
  uncleaved DNA left (log2): 0.0543
[8]
  uncleaved DNA left (log2): 0.0359
[9]
  uncleaved DNA left (log2): -0.118
[10]
  uncleaved DNA left (log2): -0.127

## GAACGCT
[1]
  uncleaved DNA left (log2): 0.158
[2]
  uncleaved DNA left (log2): 0.0304
[3]
  uncleaved DNA left (log2): -0.182
[4]
  uncleaved DNA left (log2): -1.62
[5]
  uncleaved DNA left (log2): 0.0678
[6]
  uncleaved DNA left (log2): -0.182
[7]
  uncleaved DNA left (log2): -0.0199
[8]
  uncleaved DNA left (log2): 0.0417
[9]
  uncleaved DNA left (log2): 0.059
[10]
  uncleaved DNA left (log2): -0.0515

## AGGCTCA
[1]
  uncleaved DNA left (log2): -0.0266
[2]
  uncleaved DNA left (log2): 0.024
[3]
  uncleaved DNA left (log2): 0.262
[4]
  uncleaved DNA left (log2): 0.14
[5]
  uncleaved DNA left (log2): 0.0101
[6]
  uncleaved DNA left (log2): 0.664
[7]
  uncleaved DNA left (log2): 0.0723
[8]
  uncleaved DNA left (log2): -0.0156
[9]
  uncleaved DNA left (log2): 0.00522
[10]
  uncleaved DNA left (log2): -0.00621

## TCAAGCG
[1]
  uncleaved DNA left (log2): 0.0884
[2]
  uncleaved DNA left (log2): 0.0391
[3]
  uncleaved DNA left (log2): -0.765
[4]
  uncleaved DNA left (log2): 0.184
[5]
  uncleaved DNA left (log2): 0.0783
[6]
  uncleaved DNA left (log2): -0.914
[7]
  uncleaved DNA left (log2): 0.216
[8]
  uncleaved DNA left (log2): -0.0351
[9]
  uncleaved DNA left (log2): 0.0408
[10]
  uncleaved DNA left (log2): -0.0472

## GGACCTT
[1]
  uncleaved DNA left (log2): 0.0726
[2]
  uncleaved DNA left (log2): 0.173
[3]
  uncleaved DNA left (log2): 0.828
[4]
  uncleaved DNA left (log2): 1.78
[5]
  uncleaved DNA left (log2): 0.0852
[6]
  uncleaved DNA left (log2): 2.28
[7]
  uncleaved DNA left (log2): 0.203
[8]
  uncleaved DNA left (log2): -0.0293
[9]
  uncleaved DNA left (log2): 0.164
[10]
  uncleaved DNA left (log2): 0.207
